Measured values: the supplement of paper PMC12632987
The full ranking holds about 4,500 sequences; the median of “median log2 fold change of GCK-ALFA target abundance (FLAG IP / Myc IP barcode read proportion)” is about 0.078, and the lowest 2% start at about -0.6. The list shows a part of the results.

B1: GBRAP_186_5391 (protein)
chain: EEEEEEEEKLLKELEKEYDIVIVVYLDEKKSLEEKKKIMENDVKAAEALAKETGKKVAVLFRVTANEEELEELKKYAEELDKEAKEKSGVGVKLFGKKKK
B2: GBRAP_160_4776 (protein)
chain: SEKEEKLKKKIKEAKEEILESIDTLSPEETLTVAIGETGDIIMEAEELEFDNEELLDSIDEIMDELIEELEKNKNASPEEKKKIVEEKFEKLLKELEKLT
B3: GBRAP_160_3999 (protein)
chain: MEELEKLKKEIKEIFEETKKEMEGLTPEERLTLVKGMAGEVIQLVFESPAVSEETEDEIAELMDELVERVEANKDKPLEVFYELLDETLKKIFEILDKDE
B4: GBRAP_128_3399 (protein)
chain: SQEEKLEKAKELIDKIVEADVEEARKYARELVELLKEMDLETREKVAEYLEEKLPELTAEKLDVLADVLRENRPKDDPELANIVADMEVEALNEAEEKEE
B5: GBRAP_160_4222 (protein)
chain: SEVVEKLVEIFREKAREALELMKGESEEERRVVARVMEGEIILEAMELEGVTDEMEEVVDEKAREMAEELVEHYDWSEEELERLIEEKAEELREELEKLA
B6: GBRAP_160_4339 (protein)
chain: SERAEKLIKFIKEEFEKLKELIEGETIEQRRVLIEGTFGEIAMELAEDESVSDETVDKVLEIRDETIEYLKKNPDLTEEEIKELIDEAEKKIIEIIKESE
B7: GBRAP_184_5271 (protein)
chain: TVVDVELEAETGEEAIAALRAAAAAARAAGARLRVTILLKGASVEEAIALLALLAELRAEGVVEDAVVGIEGDWSEEEIDRLVEAADAAGVRLVIAIPEE
B8: GBRAP_11_2937 (protein)
chain: EKEKLKKAQELAKEAQELLKKIQKAGKLDEELLKKAQELLKKAAELAKELGLEEEQKDLELAQELLEEVQKAGKLDETKVAAAQALVFDVAHELEEKLEE
B9: GBRAP_26_5452 (protein)
chain: MEEKLEALRDRLVELADELLDPETAALLKVEVDNIVALAELELEEANGDLEKELAVVEEMLEDLEEALDDLEVPEEVKEKLLEAAREAAEEIKEYLKKKS
B10: GBRAP_160_4345 (protein)
chain: MERAERLIEEVREAAEEVIEAIDEVSVEEAAVIAAGEFGAVAMEAALDERYTDEEVDVVIEAMDEVIEFLKANKDASVEEIKEGIREITEKAIERIKEIA
B11: GBRAP_11_2661 (protein)
chain: KKEVLKEALELAKEAAETVEELIEKGVDNEELRKKAEELLKKLKELAKKYLSKAIQSEVEVAEELWKEAKADEENKEEYWKQLLASLRVLEGNLQLELDE
B12: GBRAP_14_3843 (protein)
chain: SEELRARLLAVVDRTVAALREIAPPEYEPRVEEFRRRLEAAVDEVLELGDLEEAERRLIEVAAATVEELFADLPETERAALRAEAENELALGFEEVEEEL
B13: GBRAP_160_4114 (protein)
chain: KEELVKTAKDNAKDVEETIEIMKDLSPEEAGNLAIVTLGQILLDASEHGEKFKEIEELAEKAIKKIEETRKTDPSKLKEVSLEELKKVLEALKKKAKELE
B14: GBRAP_128_3419 (protein)
chain: SMEEKVEEVRKLLEEMLTADKETQKELADRIFELILESDLETAEAMAEVILEMLPKFTAEQLDILADAGEKHLSKFTPEKQELVADVIVEALNLAEELEE
B15: GBRAP_122_2959 (protein)
chain: SESEERLKEALEKLEKAENKPLSEIVRTTMEELSKAKEEENKEKIIEKGAEIISKKLPKVSKEEVLKILKEALELMEKEGVTPEEAAAYADVEILELEME
B16: GBRAP_53_6412 (protein)
chain: MEEEIRELREEALRLAEEAARAGPEERERLVDRIGELLARLKEAGAPDEELTELAREIARRLKEAGAPDRALVRLAAHLAALGLEDATAAVAEEAVEELE
B17: GBRAP_26_5496 (protein)
chain: FIDEVLERLREELERILADESEDLRAAVIAEAEDLLLEAEEEIEENVDDEEKIEKAIEEAVEELREALRDFGLSEEKIEAIVEALRRALEEIAKHIKEEA
B18: GBRAP_160_4200 (protein)
chain: SEKVEKIIELMREEAERVIEAVPELSKEEVANFAAVEFGSVLMEAVEMGLENDEILDTIADAADKIVEFLKENENASDEEIKKGIREIVEKAIEEIKKIA
B19: GBRAP_11_2775 (protein)
chain: SKEKLEKIAELAKKAAELVDALIAAGTTDEKLRKELAEALKELKKLVEETDDEFLKKLVEIAEEEFEEAQADPANAEAHLKRMLAALRVLEGQTLLLLEE
B20: GBRAP_160_4584 (protein)
chain: SEELKKAKEIIDEEFEEAKEMIKGETAEQRATIVLGTGGEIIMELEELSKATDELLDYVDKIFDELAATILANPDLTEEETIALIEEARKKIKEALEKEF
B21: GBRAP_160_4150 (protein)
chain: SEELEKLIEEIKKIAEEAIKLMEGETAENAKTIARVALGEMVMLVESNEAVSDETEDEVGEIARKAEAYLKANPDLTVEEIKALLKKAAEEVIEVLKKEV
B22: GBRAP_128_3460 (protein)
chain: SVEEVAEYTAEKMEEMKEASLEEFRELATELAERLLTLSLEEVEAAVEVIEENLEELTAEKLEILAEVFDEALPQFSPEKAALVADVISTALLLAEEKEE
B23: GBRAP_153_3942 (protein)
chain: MEERERRLEEAKELADRIEEEGLPEELLLELARLIYSLDEEERLEVAKYLSTLSPETVYAIFLTLATKVPFSTEELLAMITELNEEQEAAALEALVEAQK
B24: GBRAP_184_5227 (protein)
chain: KLVNVAVEAETAEEAIEKSDKVIAEAKAKGEEVNLYVIGKNLSIEEVEKVAKYLSEKKKAGEIKDATLVVEDEKSEEEIDKLVEIADKYGIKLVIALSEE
B25: GBRAP_78_6597 (protein)
chain: EVEELLEKAIEELDKASKLAKQLPEEESNELLDELVDAMSYILEAIENGFDLELLEKALKKVEKAIELAKKTNHPESPKIIEELEKAKKYLEEAIKLVKK
B26: GBRAP_11_2645 (protein)
chain: KKETLEEAAKLAKEAAKAVEKLIKEGVDNEELIKEAEKLLEELTKLTEEHLSEAHKTDVEVAKELWKKFLEDKENAEEYAKQLLAALRVLEGNFLLERDE
B27: GBRAP_184_5069 (protein)
chain: ETLHETLEVRDLAEARAKMAALAARLADFRGDLVVHVEMPEADKEIARAVLDGLRAMLDAGYVTSATVGFDAEFSEELADFAIAEADRAGVKVVLALSDE
B28: GBRAP_78_6650 (protein)
chain: EVEELLEKALEVLGEAARQALKLPEEVRNEVLDYLVDAITYLHEAIEKGGDLEELEKALEYAEKALKIAKKEDTEEAKELAKLLEEAIKLLKEAIKKVKE
B29: GBRAP_160_4322 (protein)
chain: KEELEELEKRIKEIAEEAKKMIKGQSAEEKITIVKVALGDIILEVESNPAVSDELEDKVAEIADAAEAYLDAHPDLSEEEVIALLEEAVKKILELIKEEK

The binders below were run against GABARAP, O95166 (assay: median log2 fold change of GCK-ALFA target abundance (FLAG IP / Myc IP barcode read proportion) (log2 ratio); each designed protein is fused to an ALFA-tag nanobody in HEK293 cells to bring the named protein to FLAG-tagged glucokinase (GCK); Myc marks an untargeted standard; higher = target protein stabilised (more abundant)). Conditions: target protein: 3xFLAG-MCP-GCK-ALFA reporter; HEK293 landing pad (RPLP).
Chain of GABARAP, O95166 (O95166 whole entry, the tested form may be a part): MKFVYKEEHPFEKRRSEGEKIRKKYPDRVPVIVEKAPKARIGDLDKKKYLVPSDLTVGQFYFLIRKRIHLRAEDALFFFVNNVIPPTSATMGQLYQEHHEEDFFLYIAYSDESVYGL
Summary of the method: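 The readout is target abundance, the per-binder median log2 ratio of FLAG to Myc barcode read proportions. It came from HEK293 landing-pad cells carrying a recombined ALFA-nanobody-fused binder library, induced with 2 μg mL^−1 doxycycline and transfected with a plasmid for a FLAG-tagged target and a Myc-tagged standard. After 48 h, lysates were immunoprecipitated with anti-FLAG and anti-Myc, and circular RNA barcodes were reverse transcribed, amplified and sequenced. Each barcode needed a proportion of at least 10^−7 in both replicates and each binder at least 3 barcodes per replicate, a pseudocount of 10^−6 was added, and the replicates were pooled.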
For B1, the “median log2 fold change” value was 0.615.
B2 was tested, and the “median log2 fold change” value was 0.018.
In the case of B3, the “median log2 fold change” value is reported as -0.162.
With B4 the “median log2 fold change” value was 0.00948.
B5 was tested, and the “median log2 fold change” value was -0.387.
With B6 the “median log2 fold change” value was 0.103.
In the case of B7, the “median log2 fold change” value is reported as -0.324.
With B8 the “median log2 fold change” value was 0.139.
For B9, the “median log2 fold change” value was -0.454.
B10 was tested, and the “median log2 fold change” value was -0.347.
With B11 the “median log2 fold change” value was 0.256.
For B12, the “median log2 fold change” value was 0.159.
With B13 the “median log2 fold change” value was -0.00375.
In the case of B14, the “median log2 fold change” value is reported as -0.219.
B15 was tested, and the “median log2 fold change” value was 0.211.
B16 was tested, and the “median log2 fold change” value was 0.147.
B17 was tested, and the “median log2 fold change” value was 0.00749.
With B18 the “median log2 fold change” value was -0.354.
B19 was tested, and the “median log2 fold change” value was 0.0543.
In the case of B20, the “median log2 fold change” value is reported as 0.109.
With B21 the “median log2 fold change” value was -0.016.
With B22 the “median log2 fold change” value was 0.0938.
In the case of B23, the “median log2 fold change” value is reported as 0.0949.
For B24, the “median log2 fold change” value was 0.216.
In the case of B25, the “median log2 fold change” value is reported as 0.108.
In the case of B26, the “median log2 fold change” value is reported as 0.24.
B27 was tested, and the “median log2 fold change” value was 0.000447.
In the case of B28, the “median log2 fold change” value is reported as -0.129.
With B29 the “median log2 fold change” value was 0.161.
